Laboratory results published in PubChem BioAssay AID1030 (National Center for Advancing Translational Sciences (NCATS), 2008).
In all, about 220,000 compounds went through this assay and about 16,000 (7.3%) were called active. Inconclusive means that the source gave no clear call. Such entries were picked first, then a sample of the others. Calls follow the shape of the dose curve; as a rule, active = well fitted inhibition curve with a large enough effect (not every such curve was filed as active); inconclusive = small, poorly fitted or top-dose-only effect, or another doubt; inactive = no such curve, though single readings can be large or run the other way. Where the call is inconclusive, the potency comes from a doubtful curve fit.

Target: Aldehyde dehydrogenase 1A1 (Homo sapiens) (UniProt P00352)
Assay: qHTS Assay for Inhibitors of Aldehyde Dehydrogenase 1 (ALDH1A1)
Conditions: Purified ALDH1A1, NADH fluorescence, propionaldehyde substrate; series mostly up to 75.3 µM
Potency is read from the fitted curve at half-maximal effect; tags tell the direction and shape of the fitted curve.

UniProt P00352, sequence (P00352 whole entry, looked up): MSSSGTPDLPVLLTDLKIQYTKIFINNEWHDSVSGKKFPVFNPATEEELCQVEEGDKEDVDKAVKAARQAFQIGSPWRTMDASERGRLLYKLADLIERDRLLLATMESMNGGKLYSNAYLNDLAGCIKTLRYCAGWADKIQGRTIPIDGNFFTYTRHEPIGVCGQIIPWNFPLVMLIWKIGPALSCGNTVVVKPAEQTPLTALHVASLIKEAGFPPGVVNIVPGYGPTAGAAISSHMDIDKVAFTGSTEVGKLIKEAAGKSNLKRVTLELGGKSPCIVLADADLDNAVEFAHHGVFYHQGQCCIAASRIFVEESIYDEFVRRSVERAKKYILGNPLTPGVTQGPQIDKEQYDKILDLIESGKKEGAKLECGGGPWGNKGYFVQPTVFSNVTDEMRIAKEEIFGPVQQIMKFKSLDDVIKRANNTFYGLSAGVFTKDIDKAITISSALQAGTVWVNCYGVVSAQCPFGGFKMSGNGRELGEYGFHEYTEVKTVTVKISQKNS

Potency, inconclusive:
COC(=O)c1cc(=O)nc2sc(-c3cccs3)nn12 39.8 µM [inhibitor, single point], O=C(/C=C/c1ccc(S(=O)(=O)N2CCOCC2)cc1)NC(=S)NCCCn1ccnc1 39.8 µM [inhibitor, single point], Cc1ncc(C[n+]2csc(CCOC(=O)CC34CC5CC(CC(C5)C3)C4)c2C)c(N)n1 44.7 µM [inhibitor, single point], CCn1c(-c2ccc(N(C)C)cc2)nc2ccccc21 31.6 µM [inhibitor, partial curve], COc1ccccc1Cn1c(=O)c2ccccc2n2c(SCC(=O)N3CCCCC3)nnc12 10 µM [inhibitor, partial curve], Cc1csc(NC(=O)c2cc3c(s2)CCC3)n1 31.6 µM [inhibitor, single point], COc1ccnc(NCc2cccnc2)c1C#N 44.7 µM [inhibitor, single point], Cn1c(-c2cccs2)nc2ccccc21 25.1 µM [inhibitor, partial curve], O=c1c(-c2ccc(Cl)cc2)nc2cnc(Nc3ccccc3)nc2n1C[C@H]1CCCO1 8.91 µM [inhibitor, partial curve], COc1ccc(CCNC(=O)C(=O)N2CCCCC2)cc1OC 39.8 µM [inhibitor, single point]

Potency, active:
O=C(c1cccnc1)N1CCN(Cc2cccc(Br)c2)CC1 10 µM, O=C(Cn1ncc(Cl)c(Cl)c1=O)N1CCN(S(=O)(=O)c2ccc3ccccc3c2)CC1 20 µM, COCCn1c(=O)[nH]c(=O)c2c1nc(-c1cc(Br)c3c(c1)OCO3)n2Cc1ccccc1 0.112 µM, COc1ccc(OC)c(-n2nnnc2SCC(=O)NCCc2ccccc2)c1 1.26 µM, CCOc1cc(S(=O)(=O)N2CCCCC2)ccc1Cl 22.4 µM

Potency, inactive:
CNC(=O)c1[nH]cnc1C(=O)Nc1ccccc1OC, CCn1c(=O)cc(OCC(=O)NCCCN2CCC(C)CC2)c2ccccc21, O=C(Nc1ccccc1C(=O)N1CCCC1)c1ccc(Cl)c([N+](=O)[O-])c1, CN=C1S/C(=C\c2ccc(N3CCOCC3)cc2C)C(=O)N1C, COc1cccc(C(=O)OCCN2CCOCC2)c1, CN(C)/C=C1/C(=O)Nc2ccccc21, Cc1ccc2nc(C)cc(C(=O)N3CCCC(CO)(Cc4ccccc4C)C3)c2c1 (configuration not stated)
